Inconclusive means that the source gave no clear call. Such entries were picked first, then a sample of the others. For part of these data: Potencies of inconclusive entries are left out as doubtful fits. Activity calls are given as the source filed them. Unless noted, calls come from the whole dose curve; as a rule, active = well fitted curve in the direction sought with a large enough effect; inconclusive = small, poorly fitted or top-dose-only effect, or another doubt; inactive = no such curve, though single readings can be large; an effect the other way counts as inactive or inconclusive. Non-standard residues stand in square brackets, D forms with d. Residues, ends and D or L forms follow the SMILES beside them. PhLac = O=C(O)[CH](O)Cc1ccccc1; NMeV = CN[CH](C(=O)O)C(C)C
Assays:
[1] = biological target: Glutathione peroxidase 1 (Homo sapiens) (UniProt P07203); test: Primary qHTS Assay for Inhibitors of Recombinant Selenoprotein Glutathione Peroxidase 1 (GPX1) (AID 1845191); note: nearly all actives have a fitted effect of over 65% in size; note: potency is the fitted concentration of half-maximal effect
UniProt P07203, sequence (P07203 whole entry, looked up): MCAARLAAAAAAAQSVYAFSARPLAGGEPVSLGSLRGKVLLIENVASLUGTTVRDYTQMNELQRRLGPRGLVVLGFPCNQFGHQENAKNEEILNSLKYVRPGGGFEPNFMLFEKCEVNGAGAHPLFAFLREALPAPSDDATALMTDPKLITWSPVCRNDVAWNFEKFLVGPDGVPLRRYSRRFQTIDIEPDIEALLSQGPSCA
In short: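 GR-coupled readout: NADPH consumption tracked by fluorescence, ex 340/em 450 nm, at t=0 and after 15 min at RT. Final mix 10 nM GPX1, 1 mM GSH, 0.5 mM CHP, 0.5 mM NADPH, 100 nM GR, 0.01% BSA, following 30 min enzyme–compound preincubation.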

SKOV3 = test: Primary qHTS to identify gynecologic anti-cancer compounds using libraries of approved drugs and bioactive compounds (AID 1345084); conditions: Gynecologic cancer cell panel viability, ATPlite luminescence, 48 h; series mostly up to 57.5 µM; note: nearly all actives have a fitted effect of over 55% in size; note: potency is the fitted concentration of half-maximal effect
In short: (§1)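 Luminescence from the ATPlite ATP-monitoring reagent indicates viable cell number; lower signal means cytotoxicity. Cells received compound 16 h after seeding and were exposed for 48 h across five concentrations.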

Tov-21-G = test: as above; conditions: Gynecologic cancer cell panel viability, ATPlite luminescence, 48 h; series mostly up to 57.5 µM
In short: as §1

[2] = P-glycoprotein substrates identified in KB-3-1 adenocarcinoma cell line, qHTS therapeutic library screen (AID 1346986); note: nearly all actives have a fitted effect of over 60% in size
In short: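 Viability by CellTiter-Glo after 72 h compound exposure at 37 degree C, 5% CO2. Cytotoxic call: curve class -1.1 to -2.4, maximum response >50%, AC50 < 10 uM, compared across KB-3-1 and P-gp-overexpressing KB-8-5-11.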

[3] = system: Zika virus NS2B-NS3 protease (unlinked complex); test: Primary screen GU Rhodamine qHTS for Zika virus inhibitors: Unlinked NS2B-NS3 protease assay (AID 1347159); conditions: Recombinant ZIKV NS2B-NS3 protease, Rhodamine110 substrate fluorescence; series mostly up to 107 µM; note: nearly all actives have a fitted effect of over 60% in size; note: potency is the fitted concentration of half-maximal effect
In short: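 Unlinked NS2B/NS3, 25 nM; Rhod110 peptide, 1.5 microM; compounds, up to 114 microM. Reaction run 15 min at RT in 10 mM Tris-HCl pH 8.0, 0.01% Tween 20; kinetic fluorescence change fitted with a 4-parameter Hill model.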

[4] = Primary qHTS for inhibitors of nuclear receptor binding SET domain protein 2 (NSD2) in an isogenic RCH-ACV NSD2 p.E1099K mutant (9B) (AID 1645876); conditions: activity change, negative = viability loss: at 44.9 µM (top of the series) unless noted; note: nearly all actives have a fitted effect of over 70% in size; note: potency is the fitted concentration of half-maximal effect
[5] = biological target: Cytochrome P450 3A4 (Homo sapiens) (UniProt P08684); test: Cytochrome P450 family 3 subfamily A member 4 (CYP3A4) small molecule antagonists: luciferase qHTS assay (AID 1645841; active = well fitted curve in the direction sought with a large enough effect in the repeat runs; inconclusive = weak or mixed curves; inactive = no such curve, though single readings can be large; an effect the other way counts as inactive or inconclusive; note: potency is the fitted concentration of half-maximal effect; nearly all actives have a fitted effect of over 45% in size)
UniProt P08684, sequence (P08684 whole entry, looked up): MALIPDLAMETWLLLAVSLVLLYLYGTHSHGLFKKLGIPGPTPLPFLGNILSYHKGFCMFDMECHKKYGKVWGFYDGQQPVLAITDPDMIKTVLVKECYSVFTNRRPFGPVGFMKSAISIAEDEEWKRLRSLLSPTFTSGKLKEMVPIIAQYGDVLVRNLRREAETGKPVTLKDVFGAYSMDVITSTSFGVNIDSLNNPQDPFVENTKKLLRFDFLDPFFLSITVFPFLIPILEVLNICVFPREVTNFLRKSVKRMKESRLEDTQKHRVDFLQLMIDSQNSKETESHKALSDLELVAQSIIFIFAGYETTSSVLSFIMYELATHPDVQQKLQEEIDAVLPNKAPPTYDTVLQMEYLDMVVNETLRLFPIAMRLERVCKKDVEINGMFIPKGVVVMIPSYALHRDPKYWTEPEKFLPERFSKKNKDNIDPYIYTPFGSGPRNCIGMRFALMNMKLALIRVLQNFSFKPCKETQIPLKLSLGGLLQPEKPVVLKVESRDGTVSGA
In short: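 P450-Glo CYP3A4 enzyme with proluciferin substrate preincubated 10 min with compound at room temperature, then NADPH regeneration 1 h. Luciferin detection reagent added for 20 min; luminescence recorded. Ketoconazole positive control.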

Tov112D = test: Primary qHTS to identify gynecologic anti-cancer compounds using libraries of approved drugs and bioactive compounds (AID 1345084); conditions: Gynecologic cancer cell panel viability, ATPlite luminescence, 48 h; series mostly up to 57.5 µM; note: nearly all actives have a fitted effect of over 55% in size; note: potency is the fitted concentration of half-maximal effect
In short: as §1

[6] = P-glycoprotein substrates identified in KB-8-5-11 adenocarcinoma cell line, qHTS therapeutic library screen (AID 1346987); conditions: activity change, negative = cytotoxicity: at 44.5 µM (top of the series); note: potency is the fitted concentration of half-maximal effect; nearly all actives have a fitted effect of over 65% in size
In short: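 In this qHTS, P-gp-rich KB-8-5-11 cells received library compounds across a concentration range. Viability was quantified by luminescence after 72 h at 37 degree C.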

Furin (Homo sapiens) = Furin (Homo sapiens) (UniProt P09958); test: Furin counterscreen qHTS for Zika virus inhibitors (AID 1347149); note: potency is the fitted concentration of half-maximal effect; nearly all actives have a fitted effect of over 70% in size
UniProt P09958, sequence (P09958 whole entry, looked up): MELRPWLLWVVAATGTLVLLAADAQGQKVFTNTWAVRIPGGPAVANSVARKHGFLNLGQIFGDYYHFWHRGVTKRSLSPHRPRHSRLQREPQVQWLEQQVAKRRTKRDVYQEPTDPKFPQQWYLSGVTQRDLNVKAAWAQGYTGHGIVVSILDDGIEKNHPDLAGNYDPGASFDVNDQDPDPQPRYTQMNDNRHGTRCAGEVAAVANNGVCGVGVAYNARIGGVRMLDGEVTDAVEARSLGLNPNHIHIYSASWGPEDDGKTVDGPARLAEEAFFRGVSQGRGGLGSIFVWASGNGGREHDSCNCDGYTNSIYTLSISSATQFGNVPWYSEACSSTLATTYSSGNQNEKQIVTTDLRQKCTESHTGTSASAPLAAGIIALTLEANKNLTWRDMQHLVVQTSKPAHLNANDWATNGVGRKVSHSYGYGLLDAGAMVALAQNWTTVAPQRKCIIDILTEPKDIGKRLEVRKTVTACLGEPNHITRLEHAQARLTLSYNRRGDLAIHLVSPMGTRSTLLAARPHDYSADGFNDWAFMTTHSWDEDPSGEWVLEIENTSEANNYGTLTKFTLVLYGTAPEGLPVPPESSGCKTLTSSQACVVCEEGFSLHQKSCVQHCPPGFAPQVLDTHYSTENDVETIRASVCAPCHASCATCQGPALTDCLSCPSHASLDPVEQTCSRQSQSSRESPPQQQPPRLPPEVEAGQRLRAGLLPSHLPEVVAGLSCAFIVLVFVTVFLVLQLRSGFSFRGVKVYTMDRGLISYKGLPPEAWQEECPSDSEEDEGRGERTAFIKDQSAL
In short: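 Counterscreen measures cleavage of 2 microM BOC-RVRR-AMC, below its ~15 microM Km, by 5 nM full-length human furin at pH 7.0 after a 15-min compound preincubation. Inhibition derives from the 15-min fluorescence increase at 37C.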

[7] = ZIKV-mCherry secondary qHTS for Zika virus inhibitors (AID 1347158); note: potency is the fitted concentration of half-maximal effect
In short: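 Read-out is percent infection: mCherry-positive Vero cells (nuclear-proximal intensity >450 RFU, 3 SD above negative controls) counted by high-content imaging of Hoechst-stained, PFA-fixed wells after 48-72 h with ZIKV-mCherry at MOI 1 and compound.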

[8] = system: Zika virus NS2B-NS3 protease (linked construct); test: Primary screen NINDS Rhodamine qHTS for Zika virus inhibitors (AID 1347160); note: potency is the fitted concentration of half-maximal effect; nearly all actives have a fitted effect of over 55% in size
In short: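 Single-chain NS2B-NS3 protease, 25 nM, pH 8.0; compounds preincubated 15 min. Activity: Rhodamine110 release from 1.5 microM substrate over 15 min, room temperature, data fitted to 4-parameter Hill.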

[9] = system: Zika virus NS2B-NS3 protease (linked); test: 384 well plate NINDS AMC confirmatory qHTS for Zika virus inhibitors (AID 1347163); note: potency is the fitted concentration of half-maximal effect; nearly all actives have a fitted effect of over 50% in size
In short: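 Enzyme (5, 30 or 60 nM final) first met test compounds for ~15 min. The AMC-tagged peptide Ac-VKTGKR-AMC followed at 30 microM. Fluorescence was then recorded at 25 min and scaled against no-enzyme and no-inhibitor wells.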

[10] = Tertiary RLuc qRT-PCR qHTS assay for Zika virus inhibitors (AID 1347169); note: potency is the fitted concentration of half-maximal effect; nearly all actives have a fitted effect of over 55% in size
In short: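 Luminescence read-out: live-cell Renilla luciferase substrate applied to infected Vero cells, signal measured after 1-1.5 hrs. Cells had received compound before ZIKV-RLuc (Cambodian strain, MOI 1-2) infection and were incubated 48-72 hrs at 37 degrees C.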

[11] = biological target: Calcium and integrin-binding protein 1 (Homo sapiens) (UniProt Q99828); test: Primary qHTS for Identification of Calcium Integrin Binding Protein 1 (CIB1) Competitor (AID 1508620); note: potency is the fitted concentration of half-maximal effect
UniProt Q99828, sequence (Q99828 whole entry, looked up): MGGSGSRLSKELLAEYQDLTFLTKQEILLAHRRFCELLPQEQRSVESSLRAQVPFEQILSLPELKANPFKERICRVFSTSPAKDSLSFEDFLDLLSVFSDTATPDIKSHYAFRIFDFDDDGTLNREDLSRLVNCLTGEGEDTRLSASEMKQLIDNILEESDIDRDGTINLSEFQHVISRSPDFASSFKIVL
In short: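 Fluorescence polarization competition: GST-tagged CIB1 (1 uM final) preincubated with compound 15 min at room temperature, then FITC-labelled alphaIIb peptide (100 nM final) added. After 15 min at room temperature, polarization read at Ex 480/Em 540.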

[12] = biological target: Cytochrome P450 2C9 (Homo sapiens) (UniProt P11712); test: Cytochrome P450 family 2 subfamily C member 9 (CYP2C9) small molecule antagonists: luciferase biochemical (cell-free) qHTS assay (AID 1645842; active = well fitted curve in the direction sought with a large enough effect in the repeat runs; inconclusive = weak or mixed curves; inactive = no such curve, though single readings can be large; an effect the other way counts as inactive or inconclusive)
UniProt P11712, sequence (P11712 whole entry, looked up): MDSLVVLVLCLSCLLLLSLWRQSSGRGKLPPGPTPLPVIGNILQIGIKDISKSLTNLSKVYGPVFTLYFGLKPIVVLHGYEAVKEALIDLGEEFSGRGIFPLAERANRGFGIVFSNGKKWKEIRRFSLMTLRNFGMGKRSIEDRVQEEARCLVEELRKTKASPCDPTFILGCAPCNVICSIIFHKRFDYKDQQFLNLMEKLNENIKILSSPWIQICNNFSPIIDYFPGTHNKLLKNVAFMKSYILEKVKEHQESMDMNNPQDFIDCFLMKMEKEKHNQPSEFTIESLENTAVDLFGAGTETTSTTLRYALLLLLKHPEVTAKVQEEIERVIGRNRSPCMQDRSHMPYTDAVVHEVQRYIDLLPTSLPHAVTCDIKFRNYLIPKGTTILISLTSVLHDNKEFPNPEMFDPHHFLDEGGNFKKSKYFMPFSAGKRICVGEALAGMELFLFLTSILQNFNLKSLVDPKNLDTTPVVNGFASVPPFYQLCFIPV
In short: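 P450-Glo CYP2C9 system: proluciferin substrate with enzyme in mix containing 0.4% BSA, 10 min at room temperature, then NADPH regeneration solution added and incubated 1 h at 37C. Detection reagent stopped reaction; luminescence read after 20 min as RLU.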

[13] = Primary qHTS for inhibitors of nuclear receptor binding SET domain protein 2 (NSD2) in an RCH-ACV wild type WT cells (2C) (AID 1645877); conditions: activity change, negative = cell killing: at 44.9 µM (top of the series) unless noted; note: nearly all actives have a fitted effect of over 70% in size; note: potency is the fitted concentration of half-maximal effect
[14] = biological target: Rap guanine nucleotide exchange factor 3 (Homo sapiens) (UniProt O95398); test: Confirmatory qHTS for antagonist of cAMP-regulated guanine nucleotide exchange factor 3 (EPAC1) (AID 1645880)
UniProt O95398, sequence (O95398 whole entry, looked up): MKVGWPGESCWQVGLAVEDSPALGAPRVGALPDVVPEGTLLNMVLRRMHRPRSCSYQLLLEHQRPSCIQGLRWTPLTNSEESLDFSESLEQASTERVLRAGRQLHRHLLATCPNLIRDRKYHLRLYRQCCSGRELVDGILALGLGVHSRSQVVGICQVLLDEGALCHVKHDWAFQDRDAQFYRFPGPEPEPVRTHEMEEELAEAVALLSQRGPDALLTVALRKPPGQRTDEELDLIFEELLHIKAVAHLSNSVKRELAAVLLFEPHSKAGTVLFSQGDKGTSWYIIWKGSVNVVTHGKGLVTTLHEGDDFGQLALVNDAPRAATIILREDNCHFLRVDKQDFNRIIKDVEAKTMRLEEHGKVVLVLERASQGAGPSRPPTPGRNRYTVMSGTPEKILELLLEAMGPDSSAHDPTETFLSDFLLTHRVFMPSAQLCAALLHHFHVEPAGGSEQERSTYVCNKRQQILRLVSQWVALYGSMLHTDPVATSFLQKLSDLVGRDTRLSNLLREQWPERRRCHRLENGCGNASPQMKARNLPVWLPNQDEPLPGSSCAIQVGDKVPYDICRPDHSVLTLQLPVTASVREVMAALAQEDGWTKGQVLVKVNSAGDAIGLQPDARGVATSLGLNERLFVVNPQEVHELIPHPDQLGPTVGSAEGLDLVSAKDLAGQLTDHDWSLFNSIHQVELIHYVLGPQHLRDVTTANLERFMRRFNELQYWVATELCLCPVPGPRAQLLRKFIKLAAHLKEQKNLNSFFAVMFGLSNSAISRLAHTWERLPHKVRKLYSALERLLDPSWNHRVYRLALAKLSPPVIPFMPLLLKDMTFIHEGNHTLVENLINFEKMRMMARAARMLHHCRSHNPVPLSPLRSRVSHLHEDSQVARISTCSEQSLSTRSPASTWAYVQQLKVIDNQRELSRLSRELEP
In short: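 Released BODIPY-GDP fluoresces less than Rap1-bound BODIPY-GDP; the signal is followed at 480/540 nm at 5-min intervals over 30 min, after 5 min at room temperature. Reactions contain 100 nM EPAC1, 250 nM RAP1B-BODIPY-GDP and 50 uM GDP; results are normalized to ATA and DMSO.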

[15] = biological target: Rap guanine nucleotide exchange factor 4 (Homo sapiens) (UniProt Q8WZA2); test: Confirmatory qHTS for agonist of cAMP-regulated guanine nucleotide exchange factor 4 (EPAC2) (AID 1645884);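 note: nucleotide exchange releases bodipy-GDP from Rap1 and this lowers its fluorescence; nearly all actives have a fitted effect of over 65% in size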
UniProt Q8WZA2, sequence (Q8WZA2 whole entry, looked up): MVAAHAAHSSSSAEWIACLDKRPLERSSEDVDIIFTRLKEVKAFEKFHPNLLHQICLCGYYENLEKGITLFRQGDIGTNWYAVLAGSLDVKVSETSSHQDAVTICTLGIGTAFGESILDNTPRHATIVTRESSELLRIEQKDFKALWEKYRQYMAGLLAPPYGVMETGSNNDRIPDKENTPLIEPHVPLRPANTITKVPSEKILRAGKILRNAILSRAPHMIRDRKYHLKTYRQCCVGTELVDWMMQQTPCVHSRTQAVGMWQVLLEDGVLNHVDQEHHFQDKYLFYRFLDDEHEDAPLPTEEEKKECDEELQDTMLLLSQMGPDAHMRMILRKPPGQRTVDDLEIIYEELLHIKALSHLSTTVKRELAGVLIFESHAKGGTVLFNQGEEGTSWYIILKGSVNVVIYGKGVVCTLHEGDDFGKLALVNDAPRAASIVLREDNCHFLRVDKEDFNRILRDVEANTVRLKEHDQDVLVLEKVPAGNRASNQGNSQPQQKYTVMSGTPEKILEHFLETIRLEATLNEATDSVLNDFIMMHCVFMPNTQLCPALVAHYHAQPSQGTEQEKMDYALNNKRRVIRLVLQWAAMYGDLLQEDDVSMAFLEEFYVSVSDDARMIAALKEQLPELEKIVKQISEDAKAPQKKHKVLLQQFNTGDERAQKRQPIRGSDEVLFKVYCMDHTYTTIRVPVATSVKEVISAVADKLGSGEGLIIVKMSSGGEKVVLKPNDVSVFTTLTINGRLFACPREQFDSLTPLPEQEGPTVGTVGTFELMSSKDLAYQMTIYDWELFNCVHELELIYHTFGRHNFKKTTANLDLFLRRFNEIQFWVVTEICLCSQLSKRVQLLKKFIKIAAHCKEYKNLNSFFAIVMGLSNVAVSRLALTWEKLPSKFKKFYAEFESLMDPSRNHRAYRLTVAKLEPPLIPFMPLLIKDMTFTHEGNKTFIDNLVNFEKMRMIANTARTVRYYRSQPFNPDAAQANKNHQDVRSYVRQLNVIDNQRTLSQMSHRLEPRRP

[16] = biological target: Luciferin 4-monooxygenase (Photinus pyralis) (UniProt P08659); test: Primary firefly luciferase (FLuc) qHTS assay for identification of artifact compounds. (AID 1845220); note: potency is the fitted concentration of half-maximal effect; nearly all actives have a fitted effect of over 60% in size
In short: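 D-luciferin and ATP (10 uM each, final) in Tris acetate buffer pH 7.6 were incubated with compounds for 15 min at room temperature. The reaction was started with 10 nM Photinus pyralis luciferase and luminescence read after 5 min. Percent inhibition was fitted to a 4-parameter Hill equation.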

[17] = Primary redox qHTS assay for identification of artifact compounds. (AID 1845223); note: potency is the fitted concentration of half-maximal effect
In short: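 Redox-cycling detection via DTT (250 uM final) oxidation coupled to Amplex Red (25 uM)/HRP (250 mU/mL) in HBSS. 15 min preincubation plus 30 min after DTT, room temperature. Ex/Em 525/598 nm; 4-parameter Hill fit against DMSO and 10 uM DA3003.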
Tags give direction and shape of the fitted curve.

**Q.** For `CC1(C)SC2C(NC(=O)[C@H](C(=O)O)c3ccsc3)C(=O)N2C1C(=O)O` (stereo partly specified), which Potency [1] is on record?
**A.** The Potency was inconclusive [inhibitor, partial curve].

**Q.** And the Potency (SKOV3)?
**A.** The Potency was inconclusive [rising, full curve, poor fit].

**Q.** What about the Potency (Tov-21-G) of the same compound?
**A.** The Potency was “inactive”.

**Q.** With `CC(C)C(C(=O)N1CCCC1C(=O)O)N(C)C(=O)C(O)Cc1ccccc1` (stereo unspecified) (H-[PhLac]-[NMeV]-Pro-OH; configuration not given here) as the compound, how does the Potency [2] read?
**A.** The Potency was “inactive”.

**Q.** And the Potency [3]?
**A.** The Potency was “inactive”.

**Q.** And the Potency [4]?
**A.** Its Potency is “inactive”.

**Q.** What about the Potency (SKOV3) of the same compound?
**A.** Its Potency is “inactive”.

**Q.** Which Potency [5] does the source give for `Cc1oc2nc3c(c(NC(=O)CN4CCCC4=O)c2c1C)CCCC3` here?
**A.** Its Potency is inconclusive [falling, single point].

**Q.** And the Potency (SKOV3)?
**A.** The Potency was “inactive”.

**Q.** And the Potency (Tov112D)?
**A.** The Potency was inconclusive [rising, partial curve, poor fit].

**Q.** What does the source list for `CNC(=O)O[C@H]1COc2ccc(N3CCN(C4COC4)CC3)cc2[C@@H]1NC(=O)c1ccc(F)cc1`?
**A.** Potency [4]: inactive; Potency [1]: inactive; Potency (SKOV3): inconclusive [rising, single point]; Potency (Tov-21-G): inactive

**Q.** For `CCOc1ccc(-c2cc(NC(=O)c3c(F)cccc3F)c(C(=O)O)s2)cc1`, which Potency [6] is on record?
**A.** The Potency was inconclusive [inhibitor, single point].

**Q.** And the Potency (Furin (Homo sapiens))?
**A.** The Potency was inconclusive [inhibitor, single point].

**Q.** And the Potency [7]?
**A.** The Potency was inconclusive [inhibitor, partial curve, poor fit].

**Q.** What about the Potency [3] of the same compound?
**A.** The Potency was inconclusive [inhibitor, full curve, poor fit].

**Q.** What about the Potency [8] of the same compound?
**A.** Its Potency is active: 5.01 µM.

**Q.** What about the Potency [9] of the same compound?
**A.** The Potency was active: 7.08 µM.

**Q.** What about the Potency [10] of the same compound?
**A.** The Potency was inconclusive [inhibitor, partial curve, poor fit].

**Q.** What about the Potency [11] of the same compound?
**A.** The Potency was inconclusive [inhibitor, full curve, poor fit].

**Q.** And the Potency [12]?
**A.** The Potency was inconclusive [inhibitor, partial curve].

**Q.** And the Potency [4]?
**A.** The Potency was inconclusive [inhibitor, single point].

**Q.** What about the Potency [13] of the same compound?
**A.** Its Potency is inconclusive [inhibitor, single point].

**Q.** And the Potency [14]?
**A.** The Potency was active: 9.53 µM.

**Q.** What about the Potency [15] of the same compound?
**A.** Its Potency is “inactive”.

**Q.** And the Potency [16]?
**A.** The Potency was inconclusive [inhibitor, single point].

**Q.** And the Potency (SKOV3)?
**A.** The Potency was inconclusive [rising, full curve, poor fit].

**Q.** For H-DPPDPDRFYGMM-NH2, which Potency [13] is on record?
**A.** The Potency was “inactive”.

**Q.** What about the Potency [17] of the same compound?
**A.** Its Potency is inconclusive [activator, full curve, poor fit].

**Q.** What about the Potency (SKOV3) of the same compound?
**A.** The Potency was inconclusive [rising, full curve, poor fit].

**Q.** And the Potency (Tov112D)?
**A.** Its Potency is “inactive”.

**Q.** For `C[C@@H]1C[C@@H](O)[C@@]23CO[C@]2(CO)CCC[C@@H]3[C@@]12C[C@@H](c1ccoc1)OC2=O`, which Potency [13] is on record?
**A.** Its Potency is “inactive”.

**Q.** What about the Potency (SKOV3) of the same compound?
**A.** The Potency was “inactive”.

**Q.** What about the Potency (Tov112D) of the same compound?
**A.** The Potency was “inactive”.
